{"source": "patent US6710060B2", "about": "“4-hydroxypiperidine derivatives having antiarrhythmic activity” (Mochida Pharmaceutical Co., Ltd., priority 1999, dated 2004)", "tested_on": "Arrythmia Model Induced by Two Step Ligation of Canine Coronary Artery", "experiment": "Suppressive action on arrythmia induced by two step ligation of canine coronary artery", "details": "before start of administration 100", "description": "[Suppressive Action on Arrythmia Induced by Two Step Ligation of Canine Coronary Artery]\nAfter anesthetizing with 30 mg/kg (i.v.) of thiopental sodium, a beagle dog was ventilated by artificial respiration under a condition of 20 mL/kg and 22 strokes/min. The fifth left intercostal space was opened under sterile condition to incise membrana pericardiac cavity, and the heart was hanged in the thoracic cavity. The left anteirior descending limb of the coronary artery was peeled at 1 cm downstream of the joint to the circumflexus branch, and the artery was wound with two strings of sutures. Blood vessel of the artery was at first ligated together with a 19G needle with a round tip, and the constriction is prepared by pulling out the needle (one step ligation). Thirty minutes after the first ligation, the artery was completely ligated with the other suture (two step ligation). A dipolar electrode was stitched on the left atrial auricle for recording atrial potential. […] The aortic blood pressure was measured using a pressure transducer. […] The heart rate was measured using the R—R interval on the electrocardiogram or from the blood pressure. Each signals were recorded with a chart recorder with verification on a monitor, while simultaneously recording on a magnetic medium using a personal computer. […]", "note": "Where a name gives a salt, the structure may show the parent alone.", "data": [{"compound": "CCCCOc1ccc(N(C)CCC2(O)CCN(Cc3ccccc3)CC2)cc1", "note": "[Example 146, 1-benzyl-4-[2-[N-(4-n-butoxyphenyl)-N-methylamino]ethyl]piperidin-4-ol dihydrochloride]", "values": [{"measurement": "Arrythmia Ratio", "setting": "15 minutes after continued injection at 10 mg/kg/hr", "result": 49}, {"measurement": "Arrythmia Ratio", "setting": "30 minutes after continued injection at 10 mg/kg/hr", "result": 21}]}]}
